Measured values published in US20250333528A1 (DENALI THERAPEUTICS, published 2025).

Tests used:
[1] = target: T1, cynomolgus transferrin receptor apical domain (cynomolgus, UniProt A0A2K5X958 198-378); assay: SPR (Biacore 8K), VHH-Fc captured, TfR apical domain as analyte
T1 construct: domain: apical domain; Soluble analyte in SPR; also called cyTfR-AD; cyno TfR apical domain
Procedure: (§1) A set of experiments was performed to assess the binding affinities of VHH-Fc fusions for human and cyno TfR apical domain. In these experiments, binding affinities were determined by surface plasmon resonance using a Biacore™ 8K instrument in 1×HBS-EP+running buffer (GE Healthcare Cat. No. BR100669). Biacore™ Series S CM5 sensor chips were treated with a Human antibody capture kit (GE Healthcare, Cat. No. BR100839). VHH-Fc fusions were captured on each flow cell and serial 3-fold dilutions of human and cyno TfR apical domain (300, 100, 33, 11, 3.7, and 0 nM) were injected at a flow rate of 30 μL/min using the multi cycle kinetics method. Each sample was analyzed with a 270-second association and a 10-minute dissociation. Some VHH-Fc fusions were measured with serial 3-fold dilutions of human and cyno TfR apical domain (100, 33, 11, and 0 nM) with a 300-second association and 10-minute dissociation. After each cycle, the chip was regenerated using 3 M magnesium chloride for 30 seconds at 50 μL/minute. Binding response was corrected by subtracting the RU from a reference flow cell. A 1:1 Langmuir model of simultaneous fitting of kₒₙ and koff was used for kinetics analysis using Biacore™ 8K Evaluation Software.
(§2) The variable domains containing the mutation were sub-cloned onto the corresponding constant heavy domains of human IgG1. The heavy chain plasmids were transfected in Expi293 cells. Supernatants were collected after five days and monoclonal antibodies were purified by protein A chromatography. In order to assess affinities of the B07 mutants for human and cyno TfR apical domain, binding affinities were determined by surface plasmon resonance using a Biacore™ 8K instrument as described herein.

[2] = target: T2, human transferrin receptor apical domain (human, UniProt P02786 198-378, limits assumed); assay: as above
T2 construct: domain: apical domain; Soluble analyte in SPR; also called huTfR-AD; human TfR apical domain
Procedure: as §1, §2

T1 sequence (A0A2K5X958 entry or part of it): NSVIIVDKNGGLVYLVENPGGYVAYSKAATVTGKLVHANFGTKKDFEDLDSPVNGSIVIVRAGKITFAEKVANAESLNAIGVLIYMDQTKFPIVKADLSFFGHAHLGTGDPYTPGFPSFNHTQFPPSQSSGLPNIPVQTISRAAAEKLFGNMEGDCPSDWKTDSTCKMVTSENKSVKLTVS
T2 sequence (P02786 198-378 limits assumed): as the sequence (A0A2K5X958 entry or part of it) above, with G11R, D50Y, S51T, K95N, D97E, Q128R, K167R, N173S, S175N counted along it

Binder | Kd [1] | Kd [2] | binding result [1] | binding result [2]
B07v12 (Fc fusion, B07 R55S (Kabat) on human IgG1 Fc; also called B07 R55S) QVQLVESGGGLVQTGGSLRLSCTASGLTSDTGGMGWFRQAAGKERDFVSAITWSGSHTLYADSVKGRFNISRDKGKNTVFLQMNSLKPEDTAVYYCALDVVGIGIEVQTYDYWGQGTQVTVSSGGGGAS[sequence of human IgG1 Fc with changes omitted] | 25 nM | 8.3 nM |  | 
B07v13 (Fc fusion, B07 R55G (Kabat) on human IgG1 Fc; also called B07 R55G) QVQLVESGGGLVQTGGSLRLSCTASGLTSDTGGMGWFRQAAGKERDFVSAITWSGGHTLYADSVKGRFNISRDKGKNTVFLQMNSLKPEDTAVYYCALDVVGIGIEVQTYDYWGQGTQVTVSSGGGGAS[sequence of human IgG1 Fc with changes omitted] | 22 nM | 8.1 nM |  | 
B07v11 (Fc fusion, B07 S53N (Kabat) on human IgG1 Fc; also called B07 S53N) QVQLVESGGGLVQTGGSLRLSCTASGLTSDTGGMGWFRQAAGKERDFVSAITWNGRHTLYADSVKGRFNISRDKGKNTVFLQMNSLKPEDTAVYYCALDVVGIGIEVQTYDYWGQGTQVTVSSGGGGAS[sequence of human IgG1 Fc with changes omitted] | 53 nM | 21 nM |  | 
B07v14 (Fc fusion, B07 L58Y (Kabat) on human IgG1 Fc; also called B07 L58Y) QVQLVESGGGLVQTGGSLRLSCTASGLTSDTGGMGWFRQAAGKERDFVSAITWSGRHTYYADSVKGRFNISRDKGKNTVFLQMNSLKPEDTAVYYCALDVVGIGIEVQTYDYWGQGTQVTVSSGGGGAS[sequence of human IgG1 Fc with changes omitted] | 9.5 nM | 8.2 nM |  | 
B07v18 (Fc fusion, B07 V97A (Kabat) on human IgG1 Fc; also called B07 V97A) QVQLVESGGGLVQTGGSLRLSCTASGLTSDTGGMGWFRQAAGKERDFVSAITWSGRHTLYADSVKGRFNISRDKGKNTVFLQMNSLKPEDTAVYYCALDVAGIGIEVQTYDYWGQGTQVTVSSGGGGAS[sequence of human IgG1 Fc with changes omitted] | 18 nM | 5.5 nM |  | 
B07v2 (Fc fusion, B07 S29F (Kabat) on human IgG1 Fc; also called B07 S29F) QVQLVESGGGLVQTGGSLRLSCTASGLTFDTGGMGWFRQAAGKERDFVSAITWSGRHTLYADSVKGRFNISRDKGKNTVFLQMNSLKPEDTAVYYCALDVVGIGIEVQTYDYWGQGTQVTVSSGGGGAS[sequence of human IgG1 Fc with changes omitted] | 2.5 nM | 0.9 nM |  | 
B07v19 (Fc fusion, B07 G98A (Kabat) on human IgG1 Fc; also called B07 G98A) QVQLVESGGGLVQTGGSLRLSCTASGLTSDTGGMGWFRQAAGKERDFVSAITWSGRHTLYADSVKGRFNISRDKGKNTVFLQMNSLKPEDTAVYYCALDVVAIGIEVQTYDYWGQGTQVTVSSGGGGAS[sequence of human IgG1 Fc with changes omitted] | 160 nM | 330 nM |  | 
B07v9 (Fc fusion, B07 W52aS (Kabat) on human IgG1 Fc; also called B07 W52aS) QVQLVESGGGLVQTGGSLRLSCTASGLTSDTGGMGWFRQAAGKERDFVSAITSSGRHTLYADSVKGRFNISRDKGKNTVFLQMNSLKPEDTAVYYCALDVVGIGIEVQTYDYWGQGTQVTVSSGGGGAS[sequence of human IgG1 Fc with changes omitted] | 8.7 nM | 2.7 nM |  | 
B07v7 (Fc fusion, B07 G35S (Kabat) on human IgG1 Fc; also called B07 G35S) QVQLVESGGGLVQTGGSLRLSCTASGLTSDTGGMSWFRQAAGKERDFVSAITWSGRHTLYADSVKGRFNISRDKGKNTVFLQMNSLKPEDTAVYYCALDVVGIGIEVQTYDYWGQGTQVTVSSGGGGAS[sequence of human IgG1 Fc with changes omitted] | 3.2 nM | 1.2 nM |  | 
B07v4 (Fc fusion, B07 D30E (Kabat) on human IgG1 Fc; also called B07 D30E) QVQLVESGGGLVQTGGSLRLSCTASGLTSETGGMGWFRQAAGKERDFVSAITWSGRHTLYADSVKGRFNISRDKGKNTVFLQMNSLKPEDTAVYYCALDVVGIGIEVQTYDYWGQGTQVTVSSGGGGAS[sequence of human IgG1 Fc with changes omitted] | 2.1 nM | 0.8 nM |  | 
B07v20 (Fc fusion, B07 I99A (Kabat) on human IgG1 Fc; also called B07 I99A) QVQLVESGGGLVQTGGSLRLSCTASGLTSDTGGMGWFRQAAGKERDFVSAITWSGRHTLYADSVKGRFNISRDKGKNTVFLQMNSLKPEDTAVYYCALDVVGAGIEVQTYDYWGQGTQVTVSSGGGGAS[sequence of human IgG1 Fc with changes omitted] | 55 nM | 20 nM |  | 
B07v8 (Fc fusion, B07 T52S (Kabat) on human IgG1 Fc; also called B07 T52S) QVQLVESGGGLVQTGGSLRLSCTASGLTSDTGGMGWFRQAAGKERDFVSAISWSGRHTLYADSVKGRFNISRDKGKNTVFLQMNSLKPEDTAVYYCALDVVGIGIEVQTYDYWGQGTQVTVSSGGGGAS[sequence of human IgG1 Fc with changes omitted] | 8.9 nM | 3.2 nM |  | 
B07v5 (Fc fusion, B07 G32Y (Kabat) on human IgG1 Fc; also called B07 G32Y) QVQLVESGGGLVQTGGSLRLSCTASGLTSDTYGMGWFRQAAGKERDFVSAITWSGRHTLYADSVKGRFNISRDKGKNTVFLQMNSLKPEDTAVYYCALDVVGIGIEVQTYDYWGQGTQVTVSSGGGGAS[sequence of human IgG1 Fc with changes omitted] | 17 nM | 4.7 nM |  | 

Other lines, results leading:

Kd [1] | Kd [2] | binding result [1] | binding result [2] | Binder
2.8 nM | 1 nM |  |  | B07v1 (Fc fusion, B07 L27F (Kabat) on human IgG1 Fc; also called B07 L27F) QVQLVESGGGLVQTGGSLRLSCTASGFTSDTGGMGWFRQAAGKERDFVSAITWSGRHTLYADSVKGRFNISRDKGKNTVFLQMNSLKPEDTAVYYCALDVVGIGIEVQTYDYWGQGTQVTVSSGGGGAS[sequence of human IgG1 Fc with changes omitted]
10 nM | 3.1 nM |  |  | B07v15 (Fc fusion, B07 L94R (Kabat) on human IgG1 Fc; also called B07 L94R) QVQLVESGGGLVQTGGSLRLSCTASGLTSDTGGMGWFRQAAGKERDFVSAITWSGRHTLYADSVKGRFNISRDKGKNTVFLQMNSLKPEDTAVYYCARDVVGIGIEVQTYDYWGQGTQVTVSSGGGGAS[sequence of human IgG1 Fc with changes omitted]
120 nM | 36 nM |  |  | B07v6 (Fc fusion, B07 G33A (Kabat) on human IgG1 Fc; also called B07 G33A) QVQLVESGGGLVQTGGSLRLSCTASGLTSDTGAMGWFRQAAGKERDFVSAITWSGRHTLYADSVKGRFNISRDKGKNTVFLQMNSLKPEDTAVYYCALDVVGIGIEVQTYDYWGQGTQVTVSSGGGGAS[sequence of human IgG1 Fc with changes omitted]
 |  | no binding | no binding | B07v16 (Fc fusion, name in Kabat numbering, 95 is a Kabat number, not a count on the entry (first D of CDR3 ALDVVG...); also called DC2676; B07 D95A) QVQLVESGGGLVQTGGSLRLSCTASGLTSDTGGMGWFRQAAGKERDFVSAITWSGRHTLYADSVKGRFNISRDKGKNTVFLQMNSLKPEDTAVYYCALAVVGIGIEVQTYDYWGQGTQVTVSSGGGGAS[sequence of human IgG1 Fc with changes omitted]
370 nM | 220 nM |  |  | B07v21 (Fc fusion, B07 G100A (Kabat) on human IgG1 Fc; also called B07 G100A) QVQLVESGGGLVQTGGSLRLSCTASGLTSDTGGMGWFRQAAGKERDFVSAITWSGRHTLYADSVKGRFNISRDKGKNTVFLQMNSLKPEDTAVYYCALDVVGIAIEVQTYDYWGQGTQVTVSSGGGGAS[sequence of human IgG1 Fc with changes omitted]
1.9 nM | 0.7 nM |  |  | B07v3 (Fc fusion, B07 D30S (Kabat) on human IgG1 Fc; also called B07 D30S) QVQLVESGGGLVQTGGSLRLSCTASGLTSSTGGMGWFRQAAGKERDFVSAITWSGRHTLYADSVKGRFNISRDKGKNTVFLQMNSLKPEDTAVYYCALDVVGIGIEVQTYDYWGQGTQVTVSSGGGGAS[sequence of human IgG1 Fc with changes omitted]
11 nM | 3.6 nM |  |  | B07v10 (Fc fusion, B07 W52aG (Kabat) on human IgG1 Fc; also called B07 W52aG) QVQLVESGGGLVQTGGSLRLSCTASGLTSDTGGMGWFRQAAGKERDFVSAITGSGRHTLYADSVKGRFNISRDKGKNTVFLQMNSLKPEDTAVYYCALDVVGIGIEVQTYDYWGQGTQVTVSSGGGGAS[sequence of human IgG1 Fc with changes omitted]
2.9 nM | 1 nM |  |  | B07v17 (Fc fusion, B07 V96A (Kabat) on human IgG1 Fc; also called B07 V96A) QVQLVESGGGLVQTGGSLRLSCTASGLTSDTGGMGWFRQAAGKERDFVSAITWSGRHTLYADSVKGRFNISRDKGKNTVFLQMNSLKPEDTAVYYCALDAVGIGIEVQTYDYWGQGTQVTVSSGGGGAS[sequence of human IgG1 Fc with changes omitted]
28 nM | 8.9 nM |  |  | B07v22 (Fc fusion, B07 I100aA (Kabat) on human IgG1 Fc; also called B07 I100aA) QVQLVESGGGLVQTGGSLRLSCTASGLTSDTGGMGWFRQAAGKERDFVSAITWSGRHTLYADSVKGRFNISRDKGKNTVFLQMNSLKPEDTAVYYCALDVVGIGAEVQTYDYWGQGTQVTVSSGGGGAS[sequence of human IgG1 Fc with changes omitted]
